# Test results as given in PubChem BioAssay AID1347165 (National Center for Advancing Translational Sciences (NCATS), 2019).
# Among all 220,000 compounds or so, about 5,700 (2.6%) were called active. Inconclusive results, whose numbers are uncertain, are shown with a selection of clear calls. The call rests on the fitted dose curve; in most records, active means well fitted inhibition curve with a large enough effect; inconclusive means small, poorly fitted or top-dose-only effect; inactive means no such curve, though single readings can be large or run the other way. A potency beside an inconclusive call is a rough fit, not a confirmed value.
# Biological target: Lysine-specific demethylase 5B (Homo sapiens) (UniProt Q9UGL1)
# Sequence of UniProt Q9UGL1 (Q9UGL1 whole entry, looked up): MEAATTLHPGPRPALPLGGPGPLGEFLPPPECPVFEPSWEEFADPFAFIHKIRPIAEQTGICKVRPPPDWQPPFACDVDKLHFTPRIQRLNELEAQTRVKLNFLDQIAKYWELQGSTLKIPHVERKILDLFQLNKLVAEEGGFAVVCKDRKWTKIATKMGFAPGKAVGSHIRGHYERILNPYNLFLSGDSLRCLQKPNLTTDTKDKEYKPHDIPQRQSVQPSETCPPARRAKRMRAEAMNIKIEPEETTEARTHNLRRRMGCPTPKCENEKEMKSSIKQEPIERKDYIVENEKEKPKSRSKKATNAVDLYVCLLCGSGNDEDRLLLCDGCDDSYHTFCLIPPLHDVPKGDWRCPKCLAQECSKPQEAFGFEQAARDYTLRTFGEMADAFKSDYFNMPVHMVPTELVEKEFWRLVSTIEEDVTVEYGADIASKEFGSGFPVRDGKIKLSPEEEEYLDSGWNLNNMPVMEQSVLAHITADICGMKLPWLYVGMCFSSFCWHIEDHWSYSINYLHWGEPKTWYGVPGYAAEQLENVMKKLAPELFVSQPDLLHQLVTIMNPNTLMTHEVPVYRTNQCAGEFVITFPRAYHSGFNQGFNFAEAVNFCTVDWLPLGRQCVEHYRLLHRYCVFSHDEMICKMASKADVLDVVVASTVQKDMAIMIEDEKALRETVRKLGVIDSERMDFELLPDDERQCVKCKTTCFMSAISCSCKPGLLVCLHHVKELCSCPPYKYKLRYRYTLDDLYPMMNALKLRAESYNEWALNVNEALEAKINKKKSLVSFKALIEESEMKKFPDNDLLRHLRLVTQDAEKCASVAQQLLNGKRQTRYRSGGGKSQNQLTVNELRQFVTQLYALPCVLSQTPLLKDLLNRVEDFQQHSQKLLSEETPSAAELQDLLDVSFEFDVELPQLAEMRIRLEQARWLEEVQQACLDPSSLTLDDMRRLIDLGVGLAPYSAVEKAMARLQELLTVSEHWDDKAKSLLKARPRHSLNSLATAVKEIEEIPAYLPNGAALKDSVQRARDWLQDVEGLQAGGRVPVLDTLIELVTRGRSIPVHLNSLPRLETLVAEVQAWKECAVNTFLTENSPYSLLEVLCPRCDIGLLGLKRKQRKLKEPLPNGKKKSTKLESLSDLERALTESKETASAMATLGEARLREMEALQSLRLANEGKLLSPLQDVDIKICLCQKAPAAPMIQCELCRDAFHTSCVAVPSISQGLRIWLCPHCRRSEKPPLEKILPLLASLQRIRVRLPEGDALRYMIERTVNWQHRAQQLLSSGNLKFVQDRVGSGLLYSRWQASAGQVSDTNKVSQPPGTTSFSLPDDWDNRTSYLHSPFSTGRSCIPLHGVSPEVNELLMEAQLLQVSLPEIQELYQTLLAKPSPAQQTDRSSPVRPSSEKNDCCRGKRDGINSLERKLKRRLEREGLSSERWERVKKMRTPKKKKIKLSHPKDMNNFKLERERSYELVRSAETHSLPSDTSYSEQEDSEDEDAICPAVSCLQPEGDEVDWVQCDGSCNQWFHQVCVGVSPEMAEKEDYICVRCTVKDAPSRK
# Assay: Primary screen for KDM5B Histone Demethylases FDH-coupled qHTS; further: nearly all actives have a fitted effect of over 70% in size; on activity change, negative = inhibition: 0% is about no effect
# Conditions: FDH-coupled NADH fluorescence (FDH is formaldehyde dehydrogenase); activity change, negative = inhibition: at 57.7 µM (top of the series) unless noted
# How it was run: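 Measured: NADH fluorescence change, 30 min, RT. System: KDM5BΔAP 200 nM final, H3K4me3 peptide, α-KG, Fe(II), ascorbate, NAD⁺ plus FDH, pH 7.5 HEPES. Compounds: titrated, 10 min pre-incubation with enzyme.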
# Potency means the concentration at half of the fitted maximal effect; tags describe the fitted curve by direction and shape.
SMILES,Potency,"activity change, negative = inhibition"
Cc1ccc(OC(C)C(=O)Nc2ccc3nsnc3c2)cc1C (centres undefined),"inconclusive: 25.1 µM [inhibitor, single point]",
COc1ccc(C(=O)N2CCCC(n3cc(-c4nc(-c5ccccc5)no4)nn3)C2)cc1 (centres undefined),,inactive: -21.7%
O=C(NNC(=S)Nc1ccc(F)cc1)C(c1ccccc1)c1ccccc1,"inconclusive: 39.8 µM [inhibitor, single point]",
Cc1ccc(S(=O)(=O)N2CC=C(c3c(C)n(CC(=O)N4CCCC4)c4ccccc34)CC2)cc1C,"inconclusive: 31.6 µM [inhibitor, partial curve, poor fit]",
COc1ncccc1-c1cnc2[nH]cc(CC(=O)N(C)Cc3ccccc3)c2c1,active: 28.2 µM,
CC(C)CN(CC(=O)NC(N)=O)C1CC1,,inactive: -1.68%
C=CCn1cc2c3c(cccc31)[C@H](CC(C)C)N[C@H](C(=O)NCc1ccc(OC)cc1)C2,"inconclusive: 28.2 µM [inhibitor, partial curve, poor fit]",
Cc1cc(C(=O)N2CCCC(Cc3noc(-c4cnccn4)n3)C2)n[nH]1 (centres undefined),"inconclusive: 8.91 µM [inhibitor, partial curve, poor fit]",
CCOC(=O)c1c(C)[nH]c(CCC(=O)Nc2cc(Cl)ccc2OC)c1C,"inconclusive: 25.1 µM [inhibitor, partial curve, poor fit]",
Cc1cccnc1CCNC(=O)C1CCC(=O)N(Cc2cccc(F)c2)C1 (centres undefined),"inconclusive: 31.6 µM [inhibitor, partial curve, poor fit]",
COC(=O)[C@@H]1CN(C(=O)c2ccc(N(C)C)cc2)CCN1C(C)=O,,inactive: -3.56% [at 86.2 µM]
COc1cccc(C(=O)N2CCC(N3C[C@H](O)C[C@H]3C(=O)N3CC=C(c4ccccc4)CC3)CC2)c1,"inconclusive: 31.6 µM [inhibitor, partial curve, poor fit]",
CCOC(=O)c1c(C)oc2ccc(N(C(=O)c3ccncc3)S(=O)(=O)c3ccc(CC)cc3)cc12,"inconclusive: 6.31 µM [inhibitor, partial curve, poor fit]",
COc1ccc(CC(=O)N[C@H](C)c2onc(C)c2C(=O)O)cc1,,inactive: -16.1% [at 86.2 µM]
O=C(CN1C(=O)COc2ccc(S(=O)(=O)NC3CCCC3)cc21)Nc1ccc(Cl)cc1F,,inactive: -37.9%
COc1ccccc1C(=O)Nc1nc2nc(C)cc(=O)n2[nH]1,"inconclusive: 8.91 µM [inhibitor, partial curve, poor fit]",
Cc1cc(N2CCOCC2)nc2ccc(NC(=O)CCC(=O)N3CCN(c4ccccc4)CC3)cc12,"inconclusive: 22.4 µM [inhibitor, partial curve, poor fit]",
Cc1cc(C)c2sc(NC(=O)c3ccc(S(=O)(=O)N4CCCC4)cc3)nc2c1,"inconclusive: 3.98 µM [inhibitor, full curve, poor fit]",
COc1cc(OC)c(C2=CCN(C(=O)COc3cc(Cl)ccc3Cl)CC2)c(OC)c1,,inactive: 62.6%
COc1cccc(C2CC(=O)N(c3ccccc3)C3=C2C(=O)OC3)c1OC (centres undefined),,inactive: 0.238%
Cc1nn2c(C(F)F)cc(-c3ccccc3)nc2c1Br,,inactive: 11.1%
Cc1cc(C)c2c(-n3cccc3)nn(CCCC(=O)Nc3ccc(F)cc3C)c2n1,"inconclusive: 39.8 µM [inhibitor, single point]",

SMILES,Potency,"activity change, negative = inhibition"
Cc1cc(CN2CCC3(CC2)CCN(C(=O)c2ccccn2)CC3CO)on1 (centres undefined),"inconclusive: 28.2 µM [inhibitor, partial curve, poor fit]",
CN1CCC(C(=O)N2Cc3ccccc3CC3(CCCCN3CC3CCNCC3)C2)CC1 (centres undefined),"inconclusive: 100 µM [inhibitor, partial curve, poor fit]",
Cc1ccccc1-c1nc2cc(NC(=O)C(C)C)ccc2o1,"inconclusive: 12.6 µM [inhibitor, partial curve, poor fit]",
Cc1cc(C)nc(N2CCC(COc3ccc4c(cnn4CCC(=O)O)c3)CC2)n1,"inconclusive: 35.5 µM [inhibitor, partial curve, poor fit]",
COc1cc(SC)ccc1C(=O)OCC(=O)Nc1cc(C)ccc1C,,inactive: 8.11%
Cc1nc2ccccc2c(C)c1CC(=O)NC1CCCCCC1,,inactive: -10.5%
CCOC(=O)c1cc(-c2ccc(OC)cc2)nc2ccccc12,"inconclusive: 25.1 µM [inhibitor, partial curve, poor fit]",
O=C(Cn1ccn2nc(-c3ccc(F)cc3)c(CO)c2c1=O)Nc1ccc2c(c1)OCO2,"inconclusive: 25.1 µM [inhibitor, single point]",
CC(C)CCNC(=O)c1ccc2c(c1)NC(=O)C(CS(=O)(=O)Cc1ccc(F)cc1)N2 (centres undefined),"inconclusive: 6.31 µM [inhibitor, partial curve, poor fit]",
Cc1cccc(-c2noc([C@@H]3Cc4nc[nH]c4CN3C(=O)CC(C)(C)CC(=O)O)n2)c1,"inconclusive: 28.2 µM [inhibitor, partial curve, poor fit]",
CCOc1ccc(N2CC(NC(=O)C(C)(C)C)CC2=O)cc1 (centres undefined),,inactive: -8.37%
Cc1nnc(SCc2coc(-c3cccc(F)c3)n2)n1C,,inactive: 12.1%
COc1ccc(CC(=O)N2CCC(N3CC4CC(C3)[C@H]3CCCC(=O)N3C4)CC2)cc1Cl (some centres undefined),"inconclusive: 25.1 µM [inhibitor, partial curve, poor fit]",
COc1ccc2cc(C(=O)OC(C)C(=O)NC(C)(C)C)c(C)nc2c1 (centres undefined),"inconclusive: 1.78 µM [inhibitor, full curve, poor fit]",
CCn1c(=O)c2cc(C(=O)Nc3cc(OC)c(OC)c(OC)c3)sc2c2ccccc21,"inconclusive: 39.8 µM [inhibitor, single point]",
CCCNc1c(NC(=O)NCc2ccc(F)cc2)c(=O)oc2ccccc12,,inactive: 17.4%
CCN(Cc1ccncc1)C(=O)c1ccc2c(c1)C(O)CCCCCN2CCOC (centres undefined),"inconclusive: 25.1 µM [inhibitor, partial curve, poor fit]",
Cc1cccc(N2C(=O)CSC23CCN(C(=O)COc2ccccc2)CC3)c1,,inactive: -16.5%
CCc1ccc(C2C(C(=O)Nc3ccccc3)=C(C)Nc3c(C(=O)Nc4ccc(F)cc4)cnn32)cc1 (centres undefined),,inactive: -3.45%
O=C(COC(=O)c1ccccc1Sc1ccc(C(F)(F)F)cc1[N+](=O)[O-])NC1CCCc2ccccc21 (centres undefined),,inactive: 2.99%
Cc1n[nH]c(C)c1CCC(=O)NC1CCCc2c1[nH]c1ccc(F)cc21 (centres undefined),"inconclusive: 28.2 µM [inhibitor, partial curve]",
COc1cc(NC(=O)C2CCN(c3cnc4ccccc4n3)CC2)cc(OC)c1OC,"inconclusive: 35.5 µM [inhibitor, single point]",

SMILES,Potency,"activity change, negative = inhibition"
CCCc1cc(=O)n2[nH]c(NC(=O)c3ccc(C(C)(C)C)cc3)nc2n1,"inconclusive: 28.2 µM [inhibitor, partial curve, poor fit]",
Cc1ccc(C(=O)N2CCC(N3CC4CC(C3)[C@H]3CCCC(=O)N3C4)CC2)s1 (some centres undefined),"inconclusive: 22.4 µM [inhibitor, partial curve]",
Cc1cccc(CNS(=O)(=O)c2ccc(-c3cnc(C4CC4)o3)cc2)c1,"inconclusive: 35.5 µM [inhibitor, partial curve, poor fit]",
O=C1NCCCCCCN(Cc2ccncc2)[C@@H]2CN(C(=O)C3CCCCC3)CC[C@@H]12,"inconclusive: 20 µM [inhibitor, partial curve, poor fit]",
Cc1ccc2nc(-c3ccc(O)cc3)sc2c1,"inconclusive: 39.8 µM [inhibitor, single point]",
CCn1cc(CN2CCN(C(=O)C3CCCNC3)CC2)ccc1=O (centres undefined),"inconclusive: 10 µM [inhibitor, partial curve]",
O=C(NCCCN1CCCC1=O)c1cc2cc(F)ccc2[nH]1,"inconclusive: 28.2 µM [inhibitor, partial curve, poor fit]",
CCOC(=O)C1CCN(C(=O)CCC(=O)NCCC2=CCCCC2)CC1,,inactive: 24.6%
COCCN1C(=O)CCC2(CNC(=O)c3ccncc3)CCC=C12 (centres undefined),"inconclusive: 31.6 µM [inhibitor, partial curve, poor fit]",
COc1ccc(C2CC(c3ccccc3)=NN2C(=O)COC(=O)/C=C/c2ccc(O)c(OC)c2)cc1 (centres undefined),"inconclusive: 15.8 µM [inhibitor, partial curve, poor fit]",
CCCCCCCCS(=O)(=O)CCOS(=O)(=O)CCCCCCCC,,inactive: -6.83%
COCCNC(=O)c1ccc2c(c1)N(C)C(CC(=O)NC1CCOCC1)CO2 (centres undefined),active: 31.6 µM,
COc1ccc(CN2CCN(S(=O)(=O)c3ccccc3)CC2)c(OC)c1OC,"inconclusive: 2.24 µM [inhibitor, full curve, poor fit]",
COc1cccc(C(=O)N2CCN(Cc3cc(=O)oc4ccc(OC)cc34)CC2)c1,"inconclusive: 20 µM [inhibitor, partial curve, poor fit]",
CC(C)=NNC(=O)c1c(O)c2ccccc2[nH]c1=O,"inconclusive: 25.1 µM [inhibitor, single point]",
COc1ccc(-c2csc3ncnc(Nc4cc(Cl)ccc4OC)c23)cc1,,inactive: 10.8%
CNc1nc2c(c(C(=O)N3CCCC3)n1)CN(S(=O)(=O)C1CC1)CC2,,inactive: -17.2%
Brc1ccc2[nH]c3c(NCc4ccccn4)ncnc3c2c1,,inactive: -24.7%
COc1cccc(CNC(=O)c2ccc3nc(-c4ccc(F)cc4)c(-c4ccc(F)cc4)nc3c2)c1,"inconclusive: 25.1 µM [inhibitor, partial curve, poor fit]",
O=C(c1cccs1)c1cn(CCOc2ccccc2F)c2ccccc12,"inconclusive: 3.16 µM [inhibitor, full curve, poor fit]",
